According to the supplement of paper PMC10126150:
Values marked as one replicate rest on one cluster of the flow cell; about a third of the high ones do not repeat.

Test system: ATP
Test: switch fluorescence ratio, 500 uM ATP over buffer (Cy3 cluster intensity, sum of 5 cycles each) (fold (ratio)); higher = stronger signal-on switching upon ATP binding; sequences stand for … in TCGTCGGCAGCGTCAGATGTGTATAAGAGACAGTTTTTTTTTTTTTTTTTTTTTTTTT…TC
Conditions: aptamer strand: ATP DNA aptamer (quencher-CACCTGGGGGAGTATTGCGGAGGAAGG + anchor), 100 nM annealed; ATP concentration: 500 uM; one replicate
Summary of the method: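 Clusters with intensities outside 100-1000 RFU were excluded. The remaining Cy3-labelled switching-strand clusters on a modified Illumina MiSeq flow-cell had been annealed to 100 nM quencher-labelled ATP aptamer and imaged in selection buffer, then after 15 min with 500 uM ATP at 22 °C, for five cycles separated by NaOH stripping and re-annealing. The fluorescence ratio, averaged per switch-domain sequence, is each cluster's summed target-cycle Cy3 intensity over its summed buffer-cycle Cy3 intensity.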
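Further: ATP exposure 15 min at 22 °C before imaging.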

Sequence	switch fluorescence ratio
CAGAATCGCA	1.07
TCACGGTCTC	1.02
CCCGTATACC	1.98
CGACGACTTA	1.16
AAGGGGAGTA	0.928
AAAGCGACGC	1.01
AATTTCGTCG	0.979
ATATTTGCAG	0.943
TGCTTCCCTT	1.03
GCTGACAGGA	1
TTTAGTTTGA	0.958
TTATAACATC	1.08
TCGTCTGTTT	1
GTTTATGAGT	1
AGGAACGTGT	0.994
CCTCACTTTG	0.992
CCTCTTGGCC	1.07
CCCACTGTGG	1.03
ATGTTGGGCC	0.97
AATTTGTTAA	0.989
AGCAGTTGGT	1.02
AGACGGATTA	0.988

Sequence	switch fluorescence ratio
CTATATCTGG	0.977
CAGGATCTGC	0.982
GATGACCAAT	1.08
AGTCAAAGTG	0.979
AATTAACG	1.01
AAAATTTTTC	0.987
AAGATATCTT	0.959
GCCGGACCCT	1.07
GTGCGGAAGC	0.973
TTTGACCTAA	1.04
TTACGTTCG	1.08
GACTGTCGCC	1.04
CTACACGGCA	1.07
CTAACTCTAA	0.993
GCAGATGCGC	1.02
TTTTAGACGG	0.977
ATCCGCGTCA	1.46
GTGGACGTGC	1.02
CTCGGACCCC	1.08
GGGAAACATT	0.978
ATTGTGCAAA	1.02
TTTTAAG	0.973

Sequence	switch fluorescence ratio
TTGCTAATCT	1.03
AGTCGTAATG	1.01
GTCATTTCTA	0.981
GGGCGTTGGT	0.959
CTCAAAGGTG	1.26
TATGCTGCGG	1
TAATTGCAGG	1.01
AAAGATTGAT	0.972
TCCCCTGGCA	0.999
GCTACACCGA	1.06
CCGGTGTGCG	0.981
TAATGCTACT	1
GAATAGTCAC	0.98
TTTGTCAGCG	1.05
CGGTGAAAGA	1.04
TATACACTAA	1.22
TCATCTAGG	1.21
CCACATTCT	0.98
AGAGAGCTCG	0.98
AACTAGACAT	1.01
CCGGGAAAT	0.995
TGGTCATAA	1.03

Sequence	switch fluorescence ratio
GTCCTTTGTT	1.05
TTTGGAATTC	1.01
GGCGCGAAGA	1
TAATCCGAGC	1.02
CTCTGGGTAA	1.21
TGTGTTTAGC	0.99
GACCGAGTCC	1.62
TCATGAGCTG	0.986
GGGACTCCTA	0.973
GCCGACGGAA	3.83
TACTTTAAAG	1.01
GCGCTTTTCA	1.03
CAAAAGAGCC	1.01
ATGTTGTGAG	0.957
TGACAGCTAA	1.13
TAGCAGGCTT	0.999
TTGCGGGTCT	0.897
GAGCCTTTCG	1.32
GGTTCTTATG	0.98
